The other results are listed elsewhere or left out.
B1: chr13:35475095:35475222:-|CDS|ENSG00000180660|unk|FALSE|unique (ssRNA)
RNA: GGGAGUUCUACAGUCCGACGAUCGCUGCAACUUAUCUCCUGCCUGCAGUGCCGGCGGUGUCCCCACUACUUUCUACCGAACUUAGAUCUGUUUCAAGGCAAACCUCACUCAGCUCUGGAAAACGCUGCCAAACAAACGUGGCGCAACAGAGGAUUGAGCAUCA
B2: chr21:29063390:29063550:-|CDS|ENSG00000156261|unk|total|mutant (ssRNA)
RNA: GGGAGUUCUACAGUCCGACGAUCGUUUACUUGUUUUGCCAGGGAACAGUGUUGAUAAAGACUGCUGAAGAAUUGAUGAAUUUCCGUAAGGGAGAAGAAAACCUCAUGGAUGCACAAGUCAAAGCUAUUGCUGAUACUGGUGCACAACAGAGGAUUGAGCAUCA
B3: ENSG00000107863:be:win_1201|CDS|ENSG00000107863|bound_else_gene|NA|bound_elsewhere_windowed (ssRNA)
RNA: GGGAGUUCUACAGUCCGACGAUCUUGCACAUAGGUUGUCGGACAAUACAAGAAAGAUUAGAUAGUUUAAGAGCAGCAUCUCAAAGCACGACAGAUUAUAACCAGGUCGUCCCCAACCGCACUACUUUGCAGGGACGACGUCGACAACAGAGGAUUGAGCAUCA
B4: chrX:74591538:74591767:-|CDS|ENSG00000131263|unk|total|mutant (ssRNA)
RNA: GGGAGUUCUACAGUCCGACGAUCUUGCCCUUCCUCCGCCUGGCUCAGUUUUUCCUCUUAAAUGAGGAUGAUGAUGACCAACCCCGAGGACUCACCAAAGAACAGAUUGACAACUUGGCAAUGAGAAGUUUUGGUGAAAAUGAUCAACAGAGGAUUGAGCAUCA
B5: ENSG00000162063:stop:overlap|stop_codon|ENSG00000162063|stop_codon|NA|stop_codon (ssRNA)
RNA: GGGAGUUCUACAGUCCGACGAUCUGCGGCACUGCACCAAGGAGCCCCCGAGCGCUGAGAGCCCACACCCCGUCCCGGCUGUCUAGGUCCCCACUGUGGUGGAUUACAAGGAGGUCCUGCUGACGCUAGUCCCUGUGGAGCUGACAACAGAGGAUUGAGCAUCA
B6: chr12:106239179:106239280:-|CDS|ENSG00000136026|msi1|total|mutant (ssRNA)
RNA: GGGAGUUCUACAGUCCGACGAUCGGACCAAGCCCAGGCCGCCCGUCUGCCUCCUCAGGACUUCCUGGACAGACUUUCUUCUCCCGACAACCUGAAAGCCUCAGUCAGCCAAGUGGAGGCGGACUUGAAAAUGCUCAGGACUGCCAACAGAGGAUUGAGCAUCA
B7: ENSG00000107863:be:win_4451|CDS|ENSG00000107863|bound_else_gene|NA|bound_elsewhere_windowed (ssRNA)
RNA: GGGAGUUCUACAGUCCGACGAUCGCACGACAAAAGAUGAAAAGAUAUCACUAGGAAAAGAGAGCACGCCUUCUGAAGAACCCUCACCACCACACAACUCAAAACACAACAAGUCACCAACUCUCAGCUGUCGCUUUGCCAUCCCAACAGAGGAUUGAGCAUCA
B8: chr7:139716074:139716127:-|CDS|ENSG00000064393|msi1_unk|total|mutant (ssRNA)
RNA: GGGAGUUCUACAGUCCGACGAUCGAAGCAAAACAAGUUCCGCCCCUUGCCCCUCAAAUACAUUCGCCCAGUUCUCCAGCAGGCCGCCACAGCCCUGAUGAAACUCAAAAGCCCCGGUCUUAUCCACGCUGACCUCAAACCAGACAACAGAGGAUUGAGCAUCA
B9: chr3:58425360:58425463:+|3pUTR|ENSG00000168297|unk|FALSE|unique (ssRNA)
RNA: GGGAGUUCUACAGUCCGACGAUCAGACAGCUCCUAGAAACAUUCCUCUUACAGUUCAUUUCUCUAAAGCAUUUUCUGAUUCUUAGAUAACUCCAAUUUUUGCUACCUUUAUCUUAGACAUUAACACUAUAGCCCAAAGCAUAGCAACAGAGGAUUGAGCAUCA
B10: chr5:75360489:75360590:+|3pUTR|ENSG00000113161|msi1|FALSE|unique (ssRNA)
RNA: GGGAGUUCUACAGUCCGACGAUCGCUCUUUCAGAGAGGUCUCAGGUUCUUUCCAUGCAGACUCCUCAGAUCUGAACACAGUUUAGUGCUUUACAUGCUGUGCUCUUUGAAGAGAUUUCAACAAGAAUAUUGUAUGUUAAAGCACAACAGAGGAUUGAGCAUCA
B11: chr8:143803364:143803465:-|CDS|ENSG00000180900|msi1|total|mutant (ssRNA)
RNA: GGGAGUUCUACAGUCCGACGAUCACCCUCACCGUGCUGGUCUGUGACGGCUUUGAGGCCAGCACCGACGCAGCCCUGGAGGUCCGCGAUCCCGCCCCGGGGACCGGGCCUCCCUCUGGCCCAGCCCAAGGUGUUGUGAGCCGCCAACAGAGGAUUGAGCAUCA
B12: chrX:56565067:56565173:+|CDS|ENSG00000188021|unk|total|mutant (ssRNA)
RNA: GGGAGUUCUACAGUCCGACGAUCAGAAGCAUGAUGCAGUCGCUGAGCCAGAAUCCAGAUUUGGCUGCACAGAUGAUGCUGAACCGCCCGCUGUUUACUGCAAAUCCUCAGCUGCAGGAGCAGAUGCGGCCACAGCUCCCAGCCCAACAGAGGAUUGAGCAUCA
B13: chr2:11642538:11642650:+|3pUTR|ENSG00000196208|unk|FALSE|unique (ssRNA)
RNA: GGGAGUUCUACAGUCCGACGAUCCGAAGAGUUGAUGUCAAUCUUUUUUUCCUAAGAAAAAAAGUCCGCGAGUAUUAAAUAUUUAGAUCAAUGUUUAUAAAAUGAUUACUUUGUAUAUCUCAUUAUUCCUAUUUUGGAAUAAAACAACAGAGGAUUGAGCAUCA
B14: chr1:211748167:211748268:-|3pUTR|ENSG00000123684|msi1|total|mutant (ssRNA)
RNA: GGGAGUUCUACAGUCCGACGAUCGUACUGCAUCAGUGAGAUGAGCCGGGUUUUUGUUUGGGAUUGUAAGACUAUUAAGAUCCCCGUAAGUCAGUGGCCGUUUACUGUGAUGUGAGCAUUGCCGAUUCCCCCGUUGUCACUAAUCAACAGAGGAUUGAGCAUCA

The binders below were run against MSI1 full-length (mouse, UniProt Q61474 1-362) (assay: nsRBNS (natural sequence RNA bind-n-seq); RBNS binding buffer (assumed for nsRBNS): 25 mM Tris pH 7.5, 150 mM KCl, 3 mM MgCl2, 0.01% Triton X-100, 500 ug/ml BSA, 20 U/ml SUPERase-In, 4 C; UNK is unkempt and MSI1 is Musashi-1; names of the RNAs are library labels; protein concentration not given here; high values mean tight binding).
Chain of UniProt Q61474 (Q61474 whole entry): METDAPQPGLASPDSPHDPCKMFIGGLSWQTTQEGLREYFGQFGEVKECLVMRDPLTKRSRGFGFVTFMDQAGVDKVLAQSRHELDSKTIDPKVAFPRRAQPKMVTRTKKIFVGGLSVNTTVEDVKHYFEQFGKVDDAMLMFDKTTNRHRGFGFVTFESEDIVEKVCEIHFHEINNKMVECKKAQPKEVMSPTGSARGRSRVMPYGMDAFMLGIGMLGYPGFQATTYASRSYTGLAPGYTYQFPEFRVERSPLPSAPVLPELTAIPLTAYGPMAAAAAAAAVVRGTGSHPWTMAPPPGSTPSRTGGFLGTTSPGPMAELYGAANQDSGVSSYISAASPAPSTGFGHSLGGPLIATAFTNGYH

Binder	binding signal
B1	0.544 enrichment R
B2	0.303 enrichment R
B3	15.3 enrichment R
B4	0.286 enrichment R
B5	2.85 enrichment R
B6	0.541 enrichment R
B7	1.17 enrichment R
B8	0.745 enrichment R
B9	8.08 enrichment R
B10	0.181 enrichment R
B11	0.234 enrichment R
B12	0.353 enrichment R
B13	2.38 enrichment R
B14	0.516 enrichment R

From PMC12136788
